PubChem BioAssay AID1508623 (National Center for Advancing Translational Sciences (NCATS), 2021)
The campaign covered roughly 48,000 compounds. About 450 (0.94%) were called active. Inconclusive results (about 19%) are left out. Calls follow the shape of the dose curve; as a rule, active = well fitted inhibition curve with a large enough effect; inconclusive = small, poorly fitted or top-dose-only effect; inactive = no such curve, though single readings can be large or run the other way. The list shows a part of the results.

Experiment: Primary qHTS for Identification of Small Molecule Inhibitors of Huntingtin Promoter Activity; also: nearly all actives have a fitted effect of over 50% in size
Conditions: HEK293 HTT promoter firefly luciferase reporter (activity 0% = vehicle and -100% = no light), 24 h; series mostly up to 57.5 µM; activity change, negative = inhibition: at the top concentration
How it was run: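 Quantitative HTS used concentration series of up to 57.5 uM final on HEK293 luciferase reporter cells, 24 h at 37 degrees C. Readout was Dual-Glo firefly luminescence.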

Activity change, negative = inhibition, inactive:
CC(O)C(=O)O (centres undefined) 7.39%, CN(C)CCOC(c1ccccc1)c1ccccc1 8.06%, CCOc1ccc(CNC(=O)C2CCN(Cc3cc4ccccc4n3Cc3ccccc3C)CC2)cc1 0%, CC(=O)Nc1ccc2nc(SCCOc3ccccc3)sc2c1 14.4%, C[C@H]1C[C@@H]2[C@@H]([C@@H](O)C[C@@]3(C)[C@H]2CC[C@]3(O)C(=O)CO)[C@@]2(C)C=CC(=O)C=C12 -7.65%, Cc1ccc(NC(=O)C(=O)NCCCN2CCOCC2)cc1C 0.318%, Cc1cccc(NC(=O)C2(C)Cc3ccccc3C(=O)O2)c1 (centres undefined) 4.9%, Cc1c(CNC2CCCCCC2)c(C(=O)O)c(C)n1Cc1ccc(F)cc1 -10.1%, Cc1cc(C)cc(NC(=O)CCS(=O)(=O)c2ccc3c(c2)oc(=O)n3C)c1 -5.57%, Cc1cccc(-n2ncc3c(N4CCN(CCO)CC4)ncnc32)c1 42%, O=C(Nc1nnc2n1CCS2)c1ccccc1 27.1%, Cc1ccc(Cl)cc1NC(=O)N1CCc2cc(S(=O)(=O)N3CCC(C)CC3)ccc21 -5.53%, COc1ccccc1CNC(=O)c1ccc(Nc2nc3ccccc3n3nnnc23)cc1 -10.3%, CC(C)c1ccc(/C=C(\C#N)c2nc(-c3cc4ccccc4oc3=O)cs2)cc1 -3.1%, CCOc1ccccc1NC(=O)C1=C(C)Nc2ncnn2C1c1ccccn1 (centres undefined) -7.56%, CCOC(=O)CCn1cnc2onc(-c3ccccc3Cl)c2c1=O -3.46%, COc1cc(Cl)c(C)cc1NS(=O)(=O)c1c(C)nc2sccn2c1=O -7.83%, COC(=O)c1ccc(Nc2ncnc3c2cnn3-c2ccccc2)cc1 -9.86%, O=C(CCCCCCCCC#CI)Oc1ccccc1 -2.6%, COc1ccc(NC(=O)CN(c2ccccc2OC)S(C)(=O)=O)c(OC)c1 -1.7%, Cc1cc(C)cc(NC(=O)CCCn2nc(C)c3c(C)n(-c4ccccc4)nc3c2=O)c1 -3.91%, COc1cc(NC(=O)CCc2c(C)nc3c4c(C)cc(C)nc4nn3c2C)cc(OC)c1 0%, COc1cc(-c2nnc(SCC(=O)Oc3ccc(C)cc3C)o2)cc(OC)c1OC 3.83%, Cn1c(=O)cc(OCC(=O)N2CCN(c3ccc(F)cc3)CC2)c2ccccc21 3.21%, CCOCN(C(=O)Cn1c(CC(C)C)nc2ccccc21)c1c(C)cccc1CC -19.2%, CCOc1ccccc1Nc1ncnc2c1c(-c1ccccc1)cn2-c1ccc(OC)cc1 -19.8%, CC(C)c1ccc(NC(=O)C(NS(=O)(=O)c2ccc3c(c2)CCC(=O)N3)c2ccccc2)cc1 (centres undefined) -16.8%, Cc1cc(C)cc(NC(=O)c2ncn(-c3ccccc3)n2)c1 46%, CCc1ccc(NC(=O)N(Cc2cn(CC)c3ccccc23)C2CCCCC2)cc1 -11.3%, Cc1c(Cl)cccc1NC(=O)C(C)N(c1ccccc1)S(C)(=O)=O (centres undefined) -9.41%, O=S(=O)(c1ccccc1)c1nc(-c2ccccc2)oc1N1CCN(c2cccc(Cl)c2)CC1 -21%, Cc1ccc(-c2cn3cccnc3n2)cc1NC(=O)Cc1ccccc1 4.31%, O=C(CSCc1cnn(-c2ccccc2)c1-n1cccc1)NCc1ccccc1Br -18.3%, CCc1ccc(NC(=O)COCc2cc(-c3ccc(F)cc3)on2)cc1 14.4%, CCc1ccccc1-n1c2c(cc(-c3nc(-c4ccc(Cl)cc4)cs3)c1=O)C(=O)CC(C)(C)C2 -13.2%, O=C(COc1ccc(F)cc1)NC1CC(=O)N(c2ccc3c(c2)OCCO3)C1 (centres undefined) -11.5%, COc1cccc(NC(=O)C2CCN(c3cc(C)nc4c(-c5ccc(Cl)cc5)c(C)nn34)CC2)c1 -16.2%, Cc1ccc(-c2nn3c(=O)cc(CN4CCN(S(=O)(=O)c5ccc(Cl)cc5)CC4)nc3s2)cc1 -22.2%, CCOc1ccc(OCC)c(NS(=O)(=O)c2ccc3[nH]c(=O)ccc3c2)c1 -16%, CC(NC(=O)C1=Cc2ccccc2OC1)c1ccccc1 (centres undefined) -25.1%, CC(=O)Nc1ccc(NC(=O)Cn2c(=O)ccc3cc(S(=O)(=O)N4CCC(C)CC4)ccc32)cc1 1.07%, COc1ccc(C(=O)N2CCN(c3nc4c(C)c(Cl)ccc4s3)CC2)c(OC)c1 -5.46%, CCCCNc1nc2c(c(=O)n(Cc3ccccc3)c(=O)n2C)n1C -4.92%, COc1ccc(N(C)C(=O)c2cc3c(s2)-c2ccccc2OC3)cc1 -8.41%, Cc1cc(C(=O)Nc2cccc(C)c2C)c2c(C)nn(-c3cccc(F)c3)c2n1 -10.2%, O=C(NCc1ccc(Cl)cc1)c1ccc2c(c1)N(Cc1ccccc1F)C(=O)c1ccccc1S2=O (centres undefined) -17.3%, CCOc1ccccc1-c1nc(C(N)=O)c2c(n1)n(-c1ccc3c(c1)OCO3)c(=O)n2C -8.99%, CC(=O)Nc1ccc(S(=O)(=O)N(Cc2ccccc2)Cc2ccccc2)cc1 -28.8%, CCn1c(=O)cc(SCC(=O)NCc2ccc(C)cc2)c2ccccc21 -6.62%, C=Cc1ccc(Cn2c(=O)n(CC3CCC(C(=O)NC(C)C)CC3)c(=O)c3sccc32)cc1 (centres undefined) -8.72%, CCCCNC(=O)c1ccc2c(c1)NC(=O)C(CS(=O)(=O)Cc1ccc(F)cc1Cl)N2 (centres undefined) -17.2%, COc1cccc(-c2ccc3c(N)c(C(=O)Nc4ccccc4C)sc3n2)c1 -17.7%, CC(C)CCNC(=O)c1ccc2c(c1)nc1n2CCCCC1 -19.9%, CCCC(=O)Nc1ccc2nc(SCc3ccc(C)cc3)sc2c1 -17%, COc1ccc(C)cc1NC(=O)Cc1c(C(=O)O)c(C)cn1C -13.7%, Nc1ccc2oc(Cc3ccc(Cl)cc3)nc2c1 -9.85%, COCCNc1ccc(-c2nc(-c3ccccn3)no2)cc1[N+](=O)[O-] 54.1%, CC(C)CCn1c(=O)c2sccc2n2c(CCCC(=O)NC(C)c3ccccc3)nnc12 (centres undefined) -12.3%, CC(=O)c1cccc(NC(=O)CSc2nc3c(=O)n(C)c(=O)n(C)c3n2C)c1 3.71%, Cn1cc(CNCC2CCN(c3ncc(C(=O)NO)cn3)CC2)c2ccccc21 242%, Cc1cccc(OCC(=O)Nc2ccccc2C(=O)OCc2cc(=O)n3nc(C4CC4)sc3n2)c1 -9.26%, Cc1ccc(CCNC(=O)c2cc3c(=O)n(C)c4ccccc4c3n2C)cc1 -5.86%, CC(=O)[C@H]1CC[C@H]2[C@@H]3CCC4=CC(=O)CC[C@]4(C)[C@H]3CC[C@]12C -25.7%, Cc1cccc(N2CCN(c3nc4ccccc4c4nc(-c5cccnc5)nn34)CC2)c1C -6.96%, CCn1cc(C(=O)Nc2ccc(C(C)C)cc2)c2cc(OC)c(OC)cc2c1=O -25.1%, CCc1cccc(N2C(=O)N(Cc3c(F)cccc3Cl)c3ccccc3S2(=O)=O)c1 -9.52%, Cc1ccc2cc3cc(C(=O)N(C)c4ccccc4C)oc3nc2c1 40.7%, CCOC(=O)c1ccc(NC(=O)c2c(NCc3cc(OC)ccc3OC)sc3c2CCC3)cc1 1.68%, COc1ccc(-c2noc(CSc3nnc(-c4ccccc4)n3C)n2)cc1 -14.8%, CC(C)OCCCNC(=O)c1nn(C)c2c1CSc1ccccc1-2 -1.14%, CCCOC(=O)c1ccc(Nc2c(C(=O)OCC)cnc3c(C)cc(Cl)cc23)cc1 -13.8%, COc1ccc(C)cc1NC(=O)CN1CCN(S(=O)(=O)c2ccc(Br)cc2)CC1 -10.3%, COc1ccc(NC(=O)C2CCC(CNS(=O)(=O)c3cccs3)CC2)cc1OC (centres undefined) -2.02%, Clc1ccccc1-c1nnc(-c2ccccc2CNc2ccccc2)o1 14.4%, COc1ccccc1CNC(=O)c1cc2ccc3ccc(C)[nH]c3c2n1 -28.2%, CCN1CCc2c(sc(-n3cccc3)c2C(C)NC(=O)Nc2ccccc2C)C1 (centres undefined) -24.7%, Cc1cccc(CC(=O)Nc2cccc(-c3nc4cccnc4s3)c2)c1 19.9%, OC(CN1CCC(Cc2ccc(F)cc2)CC1)c1ccc(Cl)cc1 (centres undefined), Cc1cccc(Oc2ccc(NC(=O)CCC(=O)OCC(=O)c3ccc(Br)cc3)cc2)c1C -16.3%, COc1cccc(C(C(=O)NCc2ccccc2)N(C(=O)Cn2nnc3ccccc32)c2cccc(C(C)=O)c2)c1 (centres undefined) -8.49%, COc1cc(C2c3c(-c4ccccc4O)n[nH]c3C(=O)N2CCO)ccc1OCC(C)C (centres undefined) -21.3%, COc1ccc(Cc2c(C)nn(-c3nc(C)c(C(=O)Nc4ccc(C)cc4C)s3)c2C)cc1 -5.51%, CCCCc1ccc(NC(=O)CSc2nnc3[nH]c(=O)cc(C)n23)cc1 0.414%, CCCN1CCN(CCCNC(=O)c2ccc(CS(=O)c3ccc(OC)cc3)o2)CC1 (centres undefined) 16%, CCN(CC)CCNC(=O)c1cc2c(=O)oc3ccc(C)cc3c2s1 -5.98%, CCCN(CCC)C(=O)CSc1nnc2cc(C)c3ccccc3n12 -6.76%, Cc1ccc(NC(=O)Cn2nnc3sc4c(c3c2=O)CCCC4)c(C)c1 -1.16%, Cc1cc(C)c(Cn2c3ccccc3c3cnn(CC(=O)NCC(C)c4ccccc4)c(=O)c32)c(C)c1 (centres undefined) -12%, CCn1cc(C(=O)NCc2ccc(F)cc2)c(=O)c2cc(S(=O)(=O)N(C)C)ccc21 -20.3%, COc1cc(OC)c(NC(=O)CCNS(=O)(=O)c2ccc3c(c2)oc(=O)n3C)cc1Cl 22.3%, COc1ccc(-n2c(CCC(=O)O)ccc2-c2ccccc2)c(OC)c1 2.81%, Cc1cc(Cl)ccc1NC(=O)c1cc2ccccn2n1 1.2%, Cc1ccc(CNC(=O)CSC2=Nc3ccccc3C3=NC(C)C(=O)N23)cc1 (centres undefined) -30%, CC(=O)Nc1cccc(NC(=O)C(=O)NCCc2csc3nc(-c4ccccc4F)nn23)c1 0%, CCOC(=O)c1ccccc1NC(=O)c1nn(C)c2c1COc1ccccc1-2 -16.7%, CC(C)CCNC(=O)c1cn(C)c2ccc(S(=O)(=O)N3CCOCC3)cc2c1=O -21.6% [at 11.5 µM], COc1ccccc1N1CCN(S(=O)(=O)c2ccc(-c3cnc(C4CC4)o3)cc2)CC1 -9.11%, CCc1cccc(NC(=O)CCS(=O)(=O)c2cc3c4c(c2)CCN4C(=O)CC3)c1 -10.9%, Cc1cccc(C(=O)Nc2cccc(OCc3cc(=O)n4ccccc4n3)c2)c1 12.8%
